# Measured values published in PubChem BioAssay (NCATS).
# Inconclusive means that the source gave no clear call. Such entries were picked first, then a sample of the others. For some of these results: No potency is given beside an inconclusive call; the fits are too rough. Active and inactive are the calls of the source. Unless noted, calls follow the shape of the dose curve; as a rule, active = well fitted curve in the direction sought with a large enough effect; inconclusive = small, poorly fitted or top-dose-only effect, or another doubt; inactive = no such curve, though single readings can be large; an effect the other way counts as inactive or inconclusive.
# How the values were obtained:
# [1] = qHTS of pediatric cancer cell lines to identify multiple opportunities for drug repurposing: Primary screen for Saos-2 cells (AID 1347097); also: nearly all actives have a fitted effect of over 40% in size; also: potency is read from the fitted curve at half-maximal effect
# Method in brief: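 ATP-based luminescence (CellTiter-Glo) quantifies viability after a 48-hour exposure. Compounds are dosed across 8 or 11 final concentrations; DMSO and 2.3 µM bortezomib serve as controls.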
# UISO = assay: qHTS assay to identify novel small-molecules to repurpose for Merkel cell carcinoma treatment (AID 1296009); conditions: MCC and control cell lines, CellTiter-Glo viability, 72 h; activity change, negative = cytotoxicity: at 46 µM (top of the series); also: nearly all actives have a fitted effect of over 60% in size; also: potency is read from the fitted curve at half-maximal effect
# Method in brief: (§1)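 Cells were treated for 72 hr at 37 degree celsius with compounds in 8- or 11-point dose response. Viability was read by CellTiter-Glo luminescence, normalized to no-cell (cytotoxicity) and DMSO controls.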
# [2] = qHTS of pediatric cancer cell lines to identify multiple opportunities for drug repurposing: Primary screen for SJ-GBM2 cells (AID 1347091); also: potency is read from the fitted curve at half-maximal effect
# Method in brief: (§2)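 Viability measured as metabolically active cells via CellTiter-Glo luminescence following 48 hours of compound exposure, 11-point dilutions in confirmatory testing. 500-1,000 cells/well plated 5 hours before dosing; controls were DMSO and 2.3 µM bortezomib.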
# [3] = qHTS of pediatric cancer cell lines to identify multiple opportunities for drug repurposing: Primary screen for U-2 OS cells (AID 1347096); also: potency is read from the fitted curve at half-maximal effect; nearly all actives have a fitted effect of over 50% in size
# Method in brief: (§3)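 Viability after 48 h compound treatment at 37C, 500-1,000 cells/well, read as ATP luminescence with CellTiter-Glo. Primary screens used 11-point (MIPE, 0.78 nM-46 µM) or 8-point (NPC, 0.59 nM-46 µM) final concentrations; follow-up screens used 11-point dilutions.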
# [4] = qHTS of pediatric cancer cell lines to identify multiple opportunities for drug repurposing: Primary screen for LAN-5 cells (AID 1347100); also: potency is read from the fitted curve at half-maximal effect
# Method in brief: as §3
# MKL-1 = assay: qHTS assay to identify novel small-molecules to repurpose for Merkel cell carcinoma treatment (AID 1296009); conditions: MCC and control cell lines, CellTiter-Glo viability, 72 h; activity change, negative = cytotoxicity: at 46 µM (top of the series); also: nearly all actives have a fitted effect of over 60% in size; also: potency is read from the fitted curve at half-maximal effect
# Method in brief: as §1
# MKL-2 = assay: as above; conditions: MCC and control cell lines, CellTiter-Glo viability, 72 h; activity change, negative = cytotoxicity: at 46 µM (top of the series)
# Method in brief: as §1
# [5] = qHTS to identify inhibitors of the type 1 interferon - major histocompatibility complex class I in skeletal muscle: primary screen against the NCATS Mechanism Interrogation Plate v5.0 (MIPE) Libary (AID 1347411); conditions: iHSKM cells + IFN-b, HiBiT-tagged MHC-I luminescence, 24 h; series mostly up to 45.8 µM; also: potency is read from the fitted curve at half-maximal effect; nearly all actives have a fitted effect of over 65% in size
# Method in brief: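 Luminescence from HiBiT-tagged endogenous HLA-B*08:01 served as the MHC class I read-out. CRISPR-engineered C25cl48 human myoblasts received 4.0 ng/ml IFN-beta plus compound for 24 hrs, with an 11-point, 1:3 series topping at 46 uM final.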
# [6] = biological target: Cytochrome P450 2C9 (Homo sapiens) (UniProt P11712); assay: Cytochrome P450 family 2 subfamily C member 9 (CYP2C9) small molecule antagonists: luciferase biochemical (cell-free) qHTS assay (AID 1645842; active = well fitted curve in the direction sought with a large enough effect in the repeat runs; inconclusive = weak or mixed curves; inactive = no such curve, though single readings can be large; an effect the other way counts as inactive or inconclusive; also: potency is read from the fitted curve at half-maximal effect; nearly all actives have a fitted effect of over 55% in size)
# Sequence of UniProt P11712 (P11712 whole entry, looked up): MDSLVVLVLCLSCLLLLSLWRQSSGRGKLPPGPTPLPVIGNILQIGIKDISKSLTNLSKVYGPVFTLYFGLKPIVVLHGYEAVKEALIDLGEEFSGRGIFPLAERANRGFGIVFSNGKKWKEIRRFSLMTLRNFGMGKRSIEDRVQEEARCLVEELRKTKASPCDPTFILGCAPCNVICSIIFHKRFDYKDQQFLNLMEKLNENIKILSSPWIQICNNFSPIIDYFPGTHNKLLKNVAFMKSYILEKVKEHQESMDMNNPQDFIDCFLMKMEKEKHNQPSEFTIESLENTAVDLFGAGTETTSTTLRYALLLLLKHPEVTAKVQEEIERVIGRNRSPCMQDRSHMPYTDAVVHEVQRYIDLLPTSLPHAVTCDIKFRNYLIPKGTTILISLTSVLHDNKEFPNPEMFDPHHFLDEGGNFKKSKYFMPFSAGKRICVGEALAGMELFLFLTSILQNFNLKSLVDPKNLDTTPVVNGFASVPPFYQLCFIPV
# Method in brief: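 Luminescence, after 20 min with luciferin detection reagent, reflected CYP2C9 turnover during a 1 h NADPH-driven reaction at 37C. Enzyme-substrate mix contained 0.4% bovine serum albumin and was preincubated with compound 10 min at room temperature.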
# [7] = Quantitative High-Throughput drug screen in 47 multiple myeloma cell lines against the NCATS MIPE library collection: FR4_PLB cell viability assay (AID 1918924; also: potency is read from the fitted curve at half-maximal effect; nearly all actives have a fitted effect of over 35% in size)
# Method in brief: (§4)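 Myeloma cell lines, 500 cells per well, exposed to MIPE 4.0 library compounds for 48 h at 37C, 5% CO2. Viability from ATP by CellTiter-Glo luminescence; normalised to DMSO (100%) and media-only (0%) wells.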
# [8] = Quantitative High-Throughput drug screen in 47 multiple myeloma cell lines against the NCATS MIPE library collection: Karpas417_ECACC cell viability assay (AID 1918961); conditions: Karpas417 myeloma viability, CellTiter-Glo ATP luminescence, 48 h; series mostly up to 45.8 µM; also: potency is read from the fitted curve at half-maximal effect
# Method in brief: as §4
# [9] = Quantitative High-Throughput drug screen in 47 multiple myeloma cell lines against the NCATS MIPE library collection: KHM11_PLB cell viability assay (AID 1918962); conditions: KHM11 myeloma cell viability, CellTiter-Glo ATP luminescence, 48 h; series mostly up to 45.8 µM; also: potency is read from the fitted curve at half-maximal effect; nearly all actives have a fitted effect of over 35% in size
# Method in brief: as §4
# [10] = Quantitative High-Throughput drug screen in 47 multiple myeloma cell lines against the NCATS MIPE library collection: JIM1_ECACC cell viability assay (AID 1918964; also: potency is read from the fitted curve at half-maximal effect)
# Method in brief: (§5)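 Primary qHTS used for cherry-picking: cells at 500/well, library compounds for 48 h (37C, 5% CO2), luminescent ATP assay.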
# [11] = Quantitative High-Throughput drug screen in 47 multiple myeloma cell lines against the NCATS MIPE library collection: KMS21BM_JCRB cell viability assay (AID 1918974); conditions: ATP luminescence, 48 h; viability: at 45.8 µM (top of the series); also: potency is read from the fitted curve at half-maximal effect
# Method in brief: as §5
# [12] = Quantitative High-Throughput drug screen in 47 multiple myeloma cell lines against the NCATS MIPE library collection: MOLP8_DSMZ cell viability assay (AID 1918977); also: potency is read from the fitted curve at half-maximal effect; nearly all actives have a fitted effect of over 45% in size
# Method in brief: (§6)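 500 cells/well per myeloma line exposed to pinned MIPE 4.0 compounds for 48 h at 37 °C, 5% CO2. Viability read as ATP by CellTiter-Glo luminescence, normalised to DMSO-only (100%) and media-only (0%) wells.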
# [13] = Quantitative High-Throughput drug screen in 47 multiple myeloma cell lines against the NCATS MIPE library collection: L363_DSMZ cell viability assay (AID 1918984); conditions: L363 myeloma viability, CellTiter-Glo ATP luminescence, 48 h; series mostly up to 45.8 µM; also: potency is read from the fitted curve at half-maximal effect; nearly all actives have a fitted effect of over 40% in size
# Method in brief: as §6
# [14] = Quantitative High-Throughput drug screen in 47 multiple myeloma cell lines against the NCATS MIPE library collection: UTMC2_PLB cell viability assay (AID 1919868); conditions: CellTiter-Glo ATP luminescence, 48 h; series mostly up to 45.8 µM; also: potency is read from the fitted curve at half-maximal effect; nearly all actives have a fitted effect of over 55% in size
# Method in brief: as §6
# [15] = Quantitative High-Throughput drug screen in 47 multiple myeloma cell lines against the NCATS MIPE library collection: OPM2_DSMZ cell viability assay (AID 1919872); also: potency is read from the fitted curve at half-maximal effect; nearly all actives have a fitted effect of over 30% in size
# Method in brief: as §5
# [16] = biological target: Phospholipid hydroperoxide glutathione peroxidase GPX4 (Homo sapiens) (UniProt P36969); assay: Primary qHTS Assay for Inhibitors of Recombinant Selenoprotein Glutathione Peroxidase 4 (GPX4) (AID 1845192); also: nearly all actives have a fitted effect of over 65% in size; also: potency is read from the fitted curve at half-maximal effect
# Sequence of UniProt P36969 (P36969 whole entry, looked up): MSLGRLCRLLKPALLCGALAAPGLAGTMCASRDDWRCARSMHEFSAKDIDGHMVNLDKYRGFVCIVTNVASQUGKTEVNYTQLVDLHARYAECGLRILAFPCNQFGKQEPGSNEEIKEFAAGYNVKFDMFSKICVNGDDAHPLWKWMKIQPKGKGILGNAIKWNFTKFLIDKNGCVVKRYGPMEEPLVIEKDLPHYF
# Method in brief: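 GR-coupled assay: recombinant GPX4 preincubated 30 min with compound at room temperature; final 200 nM GPX4, 1 mM GSH, 0.5 mM cumene hydroperoxide, 0.5 mM NADPH, 100 nM GR, 0.01% BSA, pH 7.5 Tris. NADPH fluorescence (340/450 nm) read at 0 and 15 min.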
# [17] = qHTS of pediatric cancer cell lines to identify multiple opportunities for drug repurposing: Confirmatory screen for SJ-GBM2 cells (AID 1347116); also: nearly all actives have a fitted effect of over 60% in size
# Method in brief: as §2
# Tags tell the direction and shape of the fitted curve.
smiles,measurement,setting,value
C[C@H]1O[C@@H](n2cc(F)c(=O)[nH]c2=O)[C@H](O)[C@@H]1O,Potency,[1],inactive
same,Potency,UISO,inactive
NC(=O)C1(N2CCCCC2)CCN(CCCN2c3ccccc3CCc3ccc(Cl)cc32)CC1,Potency,[2],"inconclusive [cytotoxic, single point]"
same,Potency,[3],"inconclusive [cytotoxic, single point]"
same,Potency,[1],active: 21.1 µM
same,Potency,[4],"inconclusive [cytotoxic, single point]"
same,Potency,MKL-1,"inconclusive [inhibitor, single point]"
same,Potency,MKL-2,"inconclusive [inhibitor, partial curve, poor fit]"
same,Potency,UISO,"inconclusive [inhibitor, single point]"
COC(=O)N[C@@H](C)CNc1nccc(-c2cn(C(C)C)nc2-c2cc(Cl)cc(NS(C)(=O)=O)c2F)n1,Potency,[5],"inconclusive [inhibitor, full curve, poor fit]"
Cc1ccc(S(=O)(=O)Nc2ccccc2N2CCCCC2)s1,Potency,[6],"inconclusive [inhibitor, single point]"
CNC(=O)c1ccccc1Sc1ccc2c(C=Cc3ccccn3)n[nH]c2c1,Potency,[7],"inconclusive [cytotoxic, full curve, poor fit]"
same,Potency,[8],"inconclusive [rising, partial curve, poor fit]"
same,Potency,[9],"inconclusive [cytotoxic, partial curve, poor fit]"
same,Potency,[10],"inconclusive [rising, full curve, poor fit]"
same,Potency,[11],"inconclusive [rising, partial curve]"
same,Potency,[12],"inconclusive [cytotoxic, partial curve, poor fit]"
same,Potency,[13],"inconclusive [cytotoxic, partial curve, poor fit]"
same,Potency,[14],"inconclusive [cytotoxic, full curve, poor fit]"
same,Potency,[15],"inconclusive [cytotoxic, partial curve]"
same,Potency,MKL-1,"inconclusive [inhibitor, full curve]"
same,Potency,MKL-2,"inconclusive [inhibitor, partial curve, poor fit]"
same,Potency,UISO,"inconclusive [inhibitor, full curve]"
COc1cc2c(Nc3ccc(Cl)c(Cl)c3F)ncnc2cc1OCC1C[C@@H]2CN(C)C[C@@H]2C1 (some centres not stated),Potency,[5],"inconclusive [inhibitor, partial curve, poor fit]"
same,Potency,[6],"inconclusive [inhibitor, single point]"
Cc1cccc(/C=N/Nc2cc(N3CCOCC3)n3nc(-c4ccncc4)cc3n2)c1,Potency,[16],inactive
CCO[C@@H]1O[C@H](C(COCc2ccccc2)OCc2ccccc2)[C@H](OCc2ccccc2)[C@H]1O (some centres not stated),Potency,[4],inactive
Cn1nc(-c2ccc(C(F)(F)F)cc2)nc2c(=O)n(C)c(=O)nc1-2,Potency,[16],active: 22.7 µM
CC(C)=CCC/C(C)=C/CC/C(C)=C/C(=O)OCC(=O)[C@@]1(O)CC[C@H]2[C@@H]3CCC4=CC(=O)C=C[C@]4(C)[C@H]3[C@@H](O)C[C@@]21C,Potency,[17],inactive
same,Potency,[6],active: 1.74 µM
CNC(=S)NS(=O)(=O)c1cc(CCNC(=O)c2cc(Cl)ccc2OC)ccc1OC,Potency,[16],"inconclusive [inhibitor, partial curve, poor fit]"
COc1cc(N2CCC(N3CCN(C)CC3)CC2)ccc1Nc1ncc(Cl)c(Nc2ccccc2P(C)(C)=O)n1,Potency,[5],"inconclusive [inhibitor, full curve]"
c1cn2cc(-c3ccc4cn[nH]c4c3)nc(Nc3ccc(N4CCOCC4)cc3)c2n1,Potency,[5],"inconclusive [inhibitor, partial curve]"
same,Potency,[16],inactive
CCCC1(CCC)CCC2(CCN(CCCN(CC)CC)C2)CC1,Potency,[5],"inconclusive [inhibitor, full curve, poor fit]"
COc1cc2c(NC3CCN(C(C)C)CC3)nc(N3CCC(F)(F)CC3)nc2cc1OCCCN1CCCC1,Potency,[16],active: 25.5 µM
CCOCCn1nc(CC)c2nc(N3CCC(C(=O)O)CC3)nc(Nc3cc(C)ccn3)c21,Potency,[6],"inconclusive [inhibitor, partial curve]"
same,Potency,[16],inactive
Cn1sc(=O)n(Cc2ccccc2)c1=O,Potency,[16],"inconclusive [inhibitor, single point]"
C[C@]12CC[C@@H]3c4ccc(O)cc4CC[C@H]3[C@H]1CC[C@H]2O,Potency,[2],active: 16.6 µM
same,Potency,[3],"inconclusive [cytotoxic, single point]"
same,Potency,[4],active: 9.35 µM
same,Potency,[7],active: 16.6 µM
same,Potency,[8],"inconclusive [cytotoxic, partial curve, poor fit]"
same,Potency,[9],active: 4.69 µM
same,Potency,[11],active: 3.32 µM
same,Potency,[12],"inconclusive [cytotoxic, partial curve, poor fit]"
same,Potency,[13],"inconclusive [cytotoxic, full curve]"
same,Potency,[14],"inconclusive [cytotoxic, full curve, poor fit]"
same,Potency,[15],active: 18.7 µM
same,Potency,MKL-1,"inconclusive [inhibitor, single point]"
same,Potency,UISO,"inconclusive [inhibitor, partial curve]"
